Read-outs that look alike come from different tables or passages of the source.
How the values were obtained:
BT474 = test: cells; conditions: Homo sapiens, BT-474, read-out: EC50 BT474
[1] = tested on: PC3 (human prostate carcinoma cell line) cells; test: cells
[2] = PC-3, 72 h, read-out: EC50 PC3 [nM]

CCc1ncnc(-c2ccc(C(=O)N3CCN(C4COC4)CC3)c(Cl)c2)c1C#Cc1ccc(N)nc1 [Example E-273]
EC50 (BT474): 14.1 nM

CCc1ncnc(-c2ccc(C(=O)N3CCC(N4CCOCC4)CC3)c(F)c2)c1C#Cc1ccc(NC)nc1 [Example E-178]
EC50 (BT474): 47.1 nM

CCc1ncnc(-c2cc(Cl)c(C(=O)N3CCN(CCC#N)CC3)c(Cl)c2)c1C#Cc1ccc(N)nc1 [Example E-206]
EC50 (BT474): 12.1 nM

CCc1ncnc(-c2cc(F)c(C(=O)N3CCN(C=O)CC3)c(F)c2)c1C#Cc1ccc(NC)nc1 [Example E-219]
EC50 (BT474): 37.3 nM

CCc1ncnc(-c2cc(F)c(C(=O)N3CCN(CCNS(C)(=O)=O)CC3)c(F)c2)c1C#Cc1ccc(N)nc1 [Example E-152]
EC50 (BT474): 17.8 nM

CCc1ncnc(-c2ccc(C(=O)N3CCn4cnnc4C3)c(Cl)c2)c1C#Cc1ccc(N)nc1 [Example E-255]
EC50 (BT474): 43 nM

CCc1ncnc(-c2cc(Cl)c(C(=O)N3CCN(CC(F)F)CC3)c(Cl)c2)c1C#Cc1ccc(N)nc1 [Example E-202]
EC50 (BT474): 14.2 nM

CCc1ncnc(-c2ccc(C(=O)N3CCN(C4CCOCC4)CC3)c(Cl)c2)c1C#Cc1ccc(NC)nc1 [Example E-186]
EC50 (BT474): 22.4 nM

CCc1ncnc(-c2ccc(C(=O)N3CCN(C(C)C)CC3)c(C(F)(F)F)c2)c1C#Cc1ccc(N)nc1 [Example E-230]
EC50 (BT474): 45.3 nM

CCc1ncnc(-c2cc(F)c(C(=O)NCC3CCNCC3)c(F)c2)c1C#Cc1ccc(N)nc1 [Example E-175]
EC50 (BT474): 576 nM

CCNc1ccc(C#Cc2c(CC)ncnc2-c2ccc(C(=O)N3CCC4(CC3)COC4)c(F)c2)cn1 [Example E-263]
EC50 (BT474): 22.9 nM

CCc1ncnc(-c2cc(F)c(C(=O)N3CCN(C)CC3)c(Cl)c2)c1C#Cc1ccc(N)nc1 [Example E-233]
EC50 (BT474): 23 nM

CCNc1ccc(C#Cc2c(CC)ncnc2-c2ccc(C(=O)N3CCN(CCCS(C)(=O)=O)CC3)c(F)c2)cn1 [Example E-258]
EC50 (BT474): 13.1 nM

CCc1ncnc(-c2ccc(C(=O)N3CC4(CN(C)C4)C3)c(F)c2)c1C#Cc1ccc(N)nc1 [Example E-287]
EC50 (BT474): 523 nM

CCNc1ccc(C#Cc2c(CC)ncnc2-c2ccc(C(=O)N3CCn4cnnc4C3)c(F)c2)cn1 [Example E-261]
EC50 (BT474): 11.4 nM

CCc1ncnc(-c2cc(F)c(C(=O)N3CCN4CCC[C@H]4C3)c(Cl)c2)c1C#Cc1ccc(N)nc1 [Example E-238]
EC50 (BT474): 19.1 nM

CCc1ncnc(-c2ccc(C(=O)N3CCC(F)(F)CC3)c(F)c2)c1C#Cc1ccc(N)nc1 [Example E-166]
EC50 (BT474): 28.8 nM

CCc1ncnc(-c2cc(F)c(C(=O)N3CCN(C)C(=O)C3)c(F)c2)c1C#Cc1ccc(NC)nc1 [Example E-208]
EC50 (BT474): 40.4 nM

CCc1ncnc(-c2cc(F)c(C(=O)N3CCC4(CC3)COC4)c(Cl)c2)c1C#Cc1ccc(N)nc1 [Example E-158]
EC50 (BT474): 22.6 nM

CCc1ncnc(-c2cc(F)c(C(=O)N3CCN(C4CCC4)CC3)c(Cl)c2)c1C#Cc1ccc(N)nc1 [Example E-160]
EC50 (BT474): 114 nM

CCc1ncnc(-c2cc(F)c(C(=O)N3CCn4c(C)cnc4C3)c(F)c2)c1C#Cc1ccc(N)nc1 [Example E-149]
EC50 (BT474): 32.8 nM

CCc1ncnc(-c2cc(F)c(C(=O)N3CCN(C)C(=O)C3)c(Cl)c2)c1C#Cc1ccc(N)nc1 [Example E-239]
EC50 (BT474): 15.2 nM

CCc1ncnc(-c2cc(F)c(C(=O)N3CCC(CO)CC3)c(F)c2)c1C#Cc1ccc(NC)nc1 [Example E-220]
EC50 (BT474): 33.9 nM

CCc1ncnc(-c2ccc(C(=O)N3CCN(C4CCOCC4)CC3)c(F)c2)c1C#Cc1ccc(NC)nc1 [Example E-179]
EC50 (BT474): 28.7 nM

CCc1ncnc(-c2cc(F)c(C(=O)N3CCC4(CC3)CNC4)c(Cl)c2)c1C#Cc1ccc(N)nc1 [Example E-162]
EC50 (BT474): 208 nM

CCc1ncnc(-c2cc(F)c(C(=O)N3CCN(CC)CC3)c(Cl)c2)c1C#Cc1ccc(N)nc1 [Example E-235]
EC50 (BT474): 19.2 nM

CCNc1ccc(C#Cc2c(CC)ncnc2-c2ccc(C(=O)N3CCN(C4CCC4)CC3)c(F)c2)cn1 [Example E-265]
EC50 (BT474): 24.3 nM

CCc1ncnc(-c2cc(F)c(C(=O)N3CC4(CN(C)C4)C3)c(Cl)c2)c1C#Cc1ccc(N)nc1 [Example E-289]
EC50 (BT474): 71.4 nM

CCc1ncnc(-c2cc(Cl)c(C(=O)N3CCC(C(C)(C)O)CC3)c(Cl)c2)c1C#Cc1ccc(N)nc1 [Example E-201]
EC50 (BT474): 9.77 nM

CCc1ncnc(-c2ccc(C(=O)N3CCc4ncccc4C3)c(F)c2)c1C#Cc1ccc(N)nc1 [Example E-295]
EC50 (BT474): 15.1 nM

CCc1ncnc(-c2cc(F)c(C(=O)N3CCC(C(C)O)CC3)c(F)c2)c1C#Cc1ccc(NC)nc1 (centres unmarked) [Example E-213]
EC50 (BT474): 55.1 nM

CCc1ncnc(-c2ccc(C(=O)N3CCC(CN(C)C)CC3)c(F)c2)c1C#Cc1ccc(N)nc1 [Example E-272]
EC50 (BT474): 107 nM

CCc1ncnc(-c2ccc(C(=O)N3CCC(N4CCN(C)CC4)CC3)c(Cl)c2)c1C#Cc1ccc(NC)nc1 [Example E-192]
EC50 (BT474): 52.7 nM

CCc1ncnc(-c2cc(F)c(C(=O)N3CCC(F)(F)CC3)c(F)c2)c1C#Cc1ccc(N)nc1 [Example E-173]
EC50 (BT474): 39.7 nM

CCNc1ccc(C#Cc2c(CC)ncnc2-c2ccc(C(=O)N3CCC(N4CCOCC4)CC3)c(F)c2)cn1 [Example E-259]
EC50 (BT474): 13.9 nM

CCc1ncnc(-c2cc(F)c(C(=O)N3CCN(CC)CC3)c(F)c2)c1C#Cc1ccc(NC)nc1 [Example E-211]
EC50 (BT474): 96.7 nM

CCc1ncnc(-c2ccc(C(=O)N3CCN4CCCC[C@@H]4C3)c(F)c2)c1C#Cc1ccc(N)nc1 [Example E-145]
EC50 (BT474): 48.3 nM

CCc1ncnc(-c2ccc(C(=O)N3CC4(CNC4)C3)c(F)c2)c1C#Cc1ccc(N)nc1 [Example E-269]
EC50 (BT474): 59.7 nM

CCc1ncnc(-c2cc(Cl)c(C(=O)N3CCN(C)CC3)c(Cl)c2)c1C#Cc1ccc(N)nc1 [Example E-197]
EC50 (BT474): 16.4 nM

CCc1ncnc(-c2cc(F)c(C(=O)N3CCC(C(C)(C)O)CC3)c(F)c2)c1C#Cc1ccc(NC)nc1 [Example E-214]
EC50 (BT474): 84.1 nM

CCc1ncnc(-c2ccc(C(=O)N3CCN(C4CCCC4O)CC3)c(F)c2)c1C#Cc1ccc(N)nc1 (centres unmarked) [Example E-294]
EC50 (BT474): 11.2 nM

CCc1ncnc(-c2cc(F)c(C(=O)N3CCC(C(C)(C)O)CC3)c(Cl)c2)c1C#Cc1ccc(N)nc1 [Example E-237]
EC50 (BT474): 20.6 nM

CCc1ncnc(-c2cc(F)c(C(=O)N3CCC4(CC3)CNC4)c(F)c2)c1C#Cc1ccc(N)nc1 [Example E-161]
EC50 (BT474): 237 nM

CCc1ncnc(-c2ccc(C(=O)N3CCN(C)CC3)c(F)c2)c1C#Cc1ccc(NC)nc1 [Example E-182]
EC50 (BT474): 54.5 nM

CCc1ncnc(-c2cc(F)c(C(=O)N3CCN(C4CCOCC4)CC3)c(F)c2)c1C#Cc1ccc(NC)nc1 [Example E-216]
EC50 (BT474): 38.3 nM

CCNc1ccc(C#Cc2c(CC)ncnc2-c2ccc(C(=O)N3CC4(CN(C(=O)OC(C)(C)C)C4)C3)c(F)c2)cn1 [Example E-267]
EC50 (BT474): 169 nM

CCc1ncnc(-c2cc(F)c(C(=O)N3CCN(C(C)C)CC3)c(Cl)c2)c1C#Cc1ccc(N)nc1 [Example E-234]
EC50 (BT474): 21.7 nM

CCc1ncnc(-c2ccc(C(=O)N3CCN(C4COC4)CC3)c(F)c2)c1C#Cc1ccc(N)nc1 [Example E-271]
EC50 (BT474): 10.3 nM

CCc1ncnc(-c2cc(F)c(C(=O)N3CCN(CC(C)(C)O)CC3)c(Cl)c2)c1C#Cc1ccc(N)nc1 [Example E-240]
EC50 (BT474): 16.8 nM

CCc1ncnc(-c2cc(F)c(C(=O)N3CC[C@@H](N(C)C)C3)c(F)c2)c1C#Cc1ccc(NC)nc1 [Example E-209]
EC50 (BT474): 80.7 nM

CCc1ncnc(-c2ccc(C(=O)N3CCN(CCNS(C)(=O)=O)CC3)c(Cl)c2)c1C#Cc1ccc(N)nc1 [Example E-253]
EC50 (BT474): 64.6 nM

CCc1ncnc(-c2cc(F)c(C(=O)N3CCC(N4CCOCC4)CC3)c(Cl)c2)c1C#Cc1ccc(N)nc1 [Example E-236]
EC50 (BT474): 18.8 nM

CCc1ncnc(-c2cc(F)c(C(=O)N3CCN(C)CC3)c(F)c2)c1C#Cc1ccc(NC)nc1 [Example E-210]
EC50 (BT474): 59.4 nM

CCc1ncnc(-c2cc(Cl)c(C(=O)N3CCN(CC(C)(C)O)CC3)c(Cl)c2)c1C#Cc1ccc(N)nc1 [Example E-199]
EC50 (BT474): 9.81 nM

CCc1ncnc(-c2ccc(C(=O)N3CCCN(C)CC3)c(Cl)c2)c1C#Cc1ccc(N)nc1 [Example D-154]
EC50 ([1]; read-out: EC50 PC3): 122 nM

CCc1ncnc(-c2ccc(C(=O)N(C)CCN3CCCC3=O)c(OC)c2)c1C#Cc1ccc(N)nc1 [Example D-183]
EC50 ([1]; read-out: EC50 PC3): 218 nM

CCc1ncnc(-c2ccc(C(=O)NCC(O)CN(C)C)c(F)c2)c1C#Cc1ccc(N)nc1 [Example D-196]
EC50 ([1]; read-out: EC50 PC3): 144 nM

CCc1cc(-c2ncnc(CC)c2C#Cc2ccc(N)nc2)ccn1 [Example C-3]
EC50 [1, 2]: 78 nM

CCc1ncnc(-c2ccc(C(=O)N(C)CCOC)c(F)c2)c1C#Cc1ccc(N)nc1 [Example D-7]
EC50 ([1]; read-out: EC50 PC3): 24 nM

Cc1ncnc(-c2ccc(C(=O)N(C)C)cc2)c1C#Cc1ccc(N)nc1 [Example C-6]
EC50 [1, 2]: 77 nM

CCc1ncnc(-c2ccc(C(=O)NC3CCN(C)CC3)c(F)c2)c1C#Cc1ccc(N)nc1 [Example D-65]
EC50 ([1]; read-out: EC50 PC3): 156 nM

CCc1ncnc(-c2ccc(C(=O)N3CCC(OC)CC3)c(Cl)c2)c1C#Cc1ccc(N)nc1 [Example D-142]
EC50 ([1]; read-out: EC50 PC3): 80 nM

CCc1ncnc(-c2ccc(C(=O)NCC3CCCN(C)C3)c(F)c2)c1C#Cc1ccc(N)nc1 [Example D-74]
EC50 ([1]; read-out: EC50 PC3): 128 nM

CCc1ncnc(-c2ccc(C(=O)N3CCN4CCCCC4C3)c(OC)c2)c1C#Cc1ccc(N)nc1 [Example D-175]
EC50 ([1]; read-out: EC50 PC3): 95 nM

CCc1ncnc(-c2ccc(C(=O)N3CCN(CCN(C)C)CC3)c(F)c2)c1C#Cc1ccc(N)nc1C [Example D-26]
EC50 ([1]; read-out: EC50 PC3): 140 nM

CCc1ncnc(-c2ccc(C3CC3)nc2)c1C#Cc1ccc(N)nc1 [Example C-35]
EC50 [1, 2]: 131 nM

CCc1ncnc(-c2ccc(C(=O)N3CCN(C(C)(C)C)CC3)c(Cl)c2)c1C#Cc1ccc(N)nc1 [Example D-43]
EC50 ([1]; read-out: EC50 PC3): 28 nM

CCc1ncnc(-c2ccc(C(=O)NC3CC(C)(C)N(C)C(C)(C)C3)c(F)c2)c1C#Cc1ccc(N)nc1 [Example D-202]
EC50 ([1]; read-out: EC50 PC3): 200 nM

CCc1ncnc(-c2ccc(C(=O)N3CCN(CC4CC4)CC3)c(Cl)c2)c1C#Cc1ccc(N)nc1 [Example D-136]
EC50 ([1]; read-out: EC50 PC3): 106 nM

CCc1ncnc(-c2cccc(C(=O)N(CC)CC)c2)c1C#Cc1ccc(N)nc1 [Example C-44]
EC50 [1, 2]: 543 nM

CCc1ncnc(-c2ccc(C(=O)N3CCN(C(C)=O)CC3)c(Cl)c2)c1C#Cc1ccc(N)nc1 [Example D-46]
EC50 ([1]; read-out: EC50 PC3): 74 nM
